# Test results taken from PMC4336329 (PLoS ONE, 2015).
# The campaign covered roughly 310,000 compounds. About 2,200 (0.71%) showed an effect of 50% or more. Effects have a minus sign here. This is one part of the list.
# Molecular target: human ether-à-go-go-related gene (hERG) potassium channel (human, UniProt Q12809)
# Assay: primary screen, population patch clamp on CHO cells stably expressing hERG
# Chain of human ether-à-go-go-related gene (hERG) potassium channel (Q12809 whole entry, looked up): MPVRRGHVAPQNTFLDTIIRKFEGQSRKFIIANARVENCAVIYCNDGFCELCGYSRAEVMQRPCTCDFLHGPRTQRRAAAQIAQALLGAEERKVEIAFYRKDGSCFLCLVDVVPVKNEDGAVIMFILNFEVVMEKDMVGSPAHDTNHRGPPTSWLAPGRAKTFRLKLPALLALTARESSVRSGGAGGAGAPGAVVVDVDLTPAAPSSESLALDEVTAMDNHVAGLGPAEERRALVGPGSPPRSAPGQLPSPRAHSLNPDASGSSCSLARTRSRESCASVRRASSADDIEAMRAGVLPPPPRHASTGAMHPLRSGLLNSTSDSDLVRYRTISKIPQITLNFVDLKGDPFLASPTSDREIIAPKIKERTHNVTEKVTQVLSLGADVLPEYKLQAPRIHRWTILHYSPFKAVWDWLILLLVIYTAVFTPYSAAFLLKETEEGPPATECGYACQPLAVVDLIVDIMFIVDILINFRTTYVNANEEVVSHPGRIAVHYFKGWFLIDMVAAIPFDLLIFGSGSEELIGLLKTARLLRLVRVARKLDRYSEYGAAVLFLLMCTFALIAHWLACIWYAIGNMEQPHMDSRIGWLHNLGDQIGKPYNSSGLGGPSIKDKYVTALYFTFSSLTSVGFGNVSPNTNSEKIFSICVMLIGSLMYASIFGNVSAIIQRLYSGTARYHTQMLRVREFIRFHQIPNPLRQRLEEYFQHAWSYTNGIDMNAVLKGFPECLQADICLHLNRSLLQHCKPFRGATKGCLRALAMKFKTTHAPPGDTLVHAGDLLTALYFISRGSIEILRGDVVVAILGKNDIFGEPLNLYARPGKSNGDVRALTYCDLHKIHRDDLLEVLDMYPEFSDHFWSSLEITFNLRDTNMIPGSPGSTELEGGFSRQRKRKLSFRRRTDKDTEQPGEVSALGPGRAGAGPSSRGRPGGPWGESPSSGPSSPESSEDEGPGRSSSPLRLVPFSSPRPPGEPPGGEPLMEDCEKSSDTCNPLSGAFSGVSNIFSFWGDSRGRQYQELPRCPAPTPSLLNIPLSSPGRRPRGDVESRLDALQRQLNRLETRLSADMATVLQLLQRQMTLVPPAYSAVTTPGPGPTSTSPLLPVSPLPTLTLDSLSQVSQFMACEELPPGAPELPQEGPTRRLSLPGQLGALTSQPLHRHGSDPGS
row,Structure (SMILES),"hERG current change (%, negative = inhibition) at 1uM"
1,O=C(CNC(=O)c1ccc(Br)o1)Nc1cccc(S(=O)(=O)N2CCOCC2)c1,13%
2,O=C(CN1CCN(Cc2ccccc2)CC1)NCC1COc2ccccc2O1 (stereo not drawn),-0.645%
3,CCOc1ccc(NC(=O)CSc2nnc(Cc3ccccc3)c(=O)n2N)cc1,18.5%
4,O=C1c2ccccc2C(=O)N1CCn1ccnc1,17.7%
5,Clc1ncnc2scc(C3COc4ccccc4O3)c12 (stereo not drawn),19.4%
6,COCCSc1ccccc1C(=O)N1CCCC1,12.8%
7,COc1ccc(Cl)cc1NC(=O)CN(C)C(=O)c1cc2ccccc2cc1OC,17.8%
8,CC(C)N(C(=O)Cn1c(-c2ccccc2Cl)nc2ccccc21)c1ccccc1,4.69%
9,O=C(/C=C/c1ccc(Cl)cc1)NC1CCS(=O)(=O)C1 (stereo not drawn),-6.04%
10,Cc1sc2ncnc(Sc3nnc4sc5ccccc5n34)c2c1C,8.6%
11,CN1C(C(=O)NCCc2cccs2)CC2Cn3c(nc4ccccc43)C21 (stereo not drawn),-1.47%
12,CCOC(=O)C1=C(C)NC(SCC(=O)Nc2cc(C)on2)=C(C#N)C1c1cccs1 (stereo not drawn),17.9%
13,COc1nc(-c2ccccc2)ccc1-c1noc(-c2ccccc2)n1,8.33%
14,CCOC(=O)C1(CCCc2ccccc2)CCN(C(=O)CCN2CCCCC2=O)CC1,-26.3%
15,COc1ccc(C(=O)COC(=O)c2ccccc2O)c(OC)c1,11.6%
16,CCOC(=O)C1CCN(CCC(=O)Nc2ccc(Br)c(C)c2)CC1,-33.7%
17,Cc1ccc(-c2noc(CCC(=O)NC3CC3)n2)cc1,1.5%
18,CN=c1sc2ccccc2n1CC(O)COc1ccccc1 (stereo not drawn),-2.36%
19,COc1ccc2oc(=O)c(C(=O)NCc3ccccc3)cc2c1,2.58%
20,COc1cc(/C=C2/C(=O)NN(c3ccc(Cl)c(Cl)c3)C2=O)cc([N+](=O)[O-])c1O,6.69%
21,CCCc1cc(=O)[nH]c(SCC(=O)c2ccc3c(c2)NC(=O)CO3)n1,-6.11%
22,COC(=O)c1ccc(-c2nc(-c3cccs3)no2)cc1,14.8%
23,Cc1cc(NC(=O)CCS(=O)(=O)c2ccc3c(c2)NC(=O)C(C)S3)ccc1Br (stereo not drawn),15.7%

row,Structure (SMILES),"hERG current change (%, negative = inhibition) at 1uM"
1,CCN1C(=O)NC(=O)/C(=C\c2cn(CC(=O)N3CCCCC3)c3ccccc23)C1=O,10.6%
2,COc1ccccc1C1(CC(=O)Nc2nccs2)CCOC(C(C)C)C1 (stereo not drawn),16.5%
3,COc1ccc(-n2c(=O)[nH]cc(C(=O)Nc3ccc(NC(C)=O)cc3)c2=O)cc1,10.2%
4,Cc1cc(NC(=O)CSc2nnnn2Cc2ccccc2)no1,2.51%
5,COc1cc(CN2CCN(Cc3ccc4cc(F)ccc4n3)CC2CCO)cc(OC)c1 (stereo not drawn),-21.6%
6,CC(/C=N/NC(=O)c1cc(-c2ccncc2)nc2ccccc12)=C\c1ccco1,0.477%
7,C#CCOC(=O)CCCNc1ccc([N+](=O)[O-])cc1[N+](=O)[O-],8.85%
8,CN(C(=O)c1ccc(NC(=O)Cc2ccc(NC(=O)C3CCN(C(=O)C4CCC4)CC3)cc2)cc1)C1CC1,17%
9,Cn1cnnc1SCc1ccc(C#N)cc1Cl,-8.3%
10,C/C(=N\Nc1ccc(C)c(Cl)c1)c1cccnc1,25%
11,COc1ccc(NC(=O)CSc2nncc3ccccc23)cc1,-5.64%
12,C=CCNC(=O)/C(C#N)=C/c1ccccc1[N+](=O)[O-],3.79%
13,CN(C)c1cc(N/N=C\c2ccccc2)nc(N(C)C)n1,12.8%
14,Cc1cccc(-c2noc(CCC(=O)NCCc3ccccc3)n2)c1,12.6%
15,COc1ccccc1NC(=O)NCc1ccccc1F,17.4%
16,CCOc1ccc(-c2n[nH]c(=S)o2)cc1,14.6%
17,CN(C)CCCN(Cc1cc2cc3c(cc2[nH]c1=O)OCO3)C(=S)Nc1ccccc1,7.61%
18,COCCN1Cc2cccc(C(=O)NCc3ccccc3OC)c2C1=O,3.2%
19,CCOc1cc(C#N)c(NC(=O)CSc2nnnn2-c2ccc(OC)cc2)cc1OCC,-14.6%
20,COc1ccc(O)c(/C=N/NC(=S)NCCc2ccccc2)c1,15.7%
21,CCCC(=O)NC(c1ccc(OC)c(OC)c1)c1c(O)ccc2ccccc12 (stereo not drawn),4.84%
22,CC1(C)C2CC=C(/C=N/NC(=O)c3ccc(O)cc3)C1C2 (stereo not drawn),-4.85%
23,COc1ccc(C2=Nn3c(nnc3-c3cc(C)[nH]n3)SC2)cc1,-35.1%

row,Structure (SMILES),"hERG current change (%, negative = inhibition) at 1uM"
1,CCCn1cc(CN2CCC(Oc3ccc(C(=O)N4CCCC4)cc3)CC2)c(C)n1,14.3%
2,Cc1cc(C)cc(NC(=O)Nc2ccc(S(=O)(=O)Nc3cc(C)on3)cc2)c1,4.23%
3,CC(C)C(OC(=O)c1ccccc1)c1nccc2ccccc12 (stereo not drawn),6.89%
4,COCCOC(=O)C(C#N)c1nc2ccccc2nc1N1CCN(Cc2ccccc2)CC1 (stereo not drawn),-32.7%
5,O=C(/C=C/c1ccccc1)N1CCOCC1,11.3%
6,CCOc1ccc2nc(SCc3ccc(C(=O)OC)o3)[nH]c2c1,6.62%
7,Cc1ccc(C2C(C#N)=C(N)Oc3c2c(=O)n(C)c(=O)n3C)cc1 (stereo not drawn),6.36%
8,CCOC(=O)C(NC(=O)Nc1ccc(F)cc1F)(Oc1ccc(F)cc1)C(F)(F)F (stereo not drawn),3.91%
9,O=C1C=C(c2ccc(C(=O)O)cc2)C[C@@H](c2ccc(Cl)cc2)C1,9.26%
10,CCCc1nnc(NC(=O)CC(=O)Nc2ccccc2C(=O)O)s1,15.3%
11,CC(=O)Nc1ccc(OCCOc2ccc([N+](=O)[O-])cc2)cc1,12.4%
12,Cc1ccc(C(=O)NCCCN2CCOCC2)cc1Cl,15.6%
13,Cc1nn2c(=O)cc(COC(=O)c3ccc(S(=O)(=O)N4CCCCC4)cc3)nc2s1,9.39%
14,O=C1c2ccccc2C(=O)N1Cc1ccc2c(c1)OCO2,12.2%
15,CC(Oc1cccc(Cl)c1)C(=O)Nc1ccccc1C(=O)N1CCCCC1 (stereo not drawn),7.7%
16,CC(=O)Nc1ccc(S(=O)(=O)Nc2nnc(C(C)C)s2)cc1,15%
17,COc1ccc(NC(=O)/C(C#N)=C/c2ccc(OCc3ccccc3F)cc2)cc1,8.4%
18,CN(C)c1cccc(C(=O)NCC2CCCO2)c1 (stereo not drawn),10.6%
19,COc1ccc(N2CCN(C(=O)c3oc4ccccc4c3NC(=O)Cc3cccc(OC)c3)CC2)cc1,3.16%
20,Cc1cc(C)c(C#N)c(SCC(=O)Nc2ccccc2C)n1,14%
21,O=C(CSc1ccc(-c2ccccc2)nn1)NCC1CCCO1 (stereo not drawn),9.52%
22,COC(=O)c1ccc(N2CCN(C)CC2)c(NC(=O)COc2cccc(C)c2)c1,-3.12%
23,Cc1cc(S(N)(=O)=O)ccc1N=Cc1c(O)n(-c2ccccc2)c(=O)[nH]c1=O,1.58%

row,Structure (SMILES),"hERG current change (%, negative = inhibition) at 1uM"
1,Cc1ccc(O)c(C(=O)c2cc(C#N)c(=O)n(CC3CCCO3)c2)c1 (stereo not drawn),2.92%
2,Cc1ccc(S(=O)(=O)N2CCN(c3ncccn3)CC2)c(C)c1,19.1%
3,CCCCN1c2ccccc2N(CCCO)c2cc(C)nnc21,10.7%
4,Cc1ccc(C(=O)Oc2ccc3ccc(=O)oc3c2)cc1,5.97%
5,O=CN1CC(=O)N(c2ccccc2)c2c([nH]c3ccccc23)C1,-4.05%
6,Cc1nc(-c2cccnc2)sc1C(=O)Nc1cccc(C(F)(F)F)c1,-1.29%
7,COc1ccccc1N(Cc1ccccc1)S(=O)(=O)c1cccc(C(=O)Nc2ccc(C(C)=O)cc2)c1,2.16%
8,COC(=O)c1ccc(Oc2c(Cl)cccc2[N+](=O)[O-])cc1,11.9%
9,Cc1ccc(NC(=O)c2nnn(CC(=O)Nc3ccc4c(c3)OCO4)c2N)cc1C,7.24%
10,COc1ccc(NC(=O)Cc2nnc(SCC(=O)Nc3ccc(F)cc3)n2C)cc1,1.95%
11,Cc1csc(=O)n1CC(=O)OCC(=O)Nc1ccc(F)c(F)c1,13.7%
12,COc1ccc(CC(=O)Nc2ccccc2NC(=O)Cc2ccc(OC)cc2)cc1,15%
13,Cc1c(O)c(=O)n(-c2ccccc2)n1C,11.1%
14,CNC(=O)c1ccccc1NC(=O)c1cccc(S(=O)(=O)N2CCCCC2)c1,1.6%
15,O=C1CSC2(N1)C1CC3CC(C1)CC2C3 (stereo not drawn),9.64%
16,c1ccc(-c2nn3nnnc3c3ccccc23)cc1,-82.9%
17,Cc1cc(N2CCOCC2)nc2ccc(NC(=O)CCC(=O)N3CCCC(C)C3)cc12 (stereo not drawn),2.05%
18,COc1ccc(N2CCN(S(=O)(=O)c3cccs3)CC2)cc1,7.44%
19,Cc1cccc(C(=O)N[C@H](C(=O)OCC(=O)NC2CCS(=O)(=O)C2)C(C)C)c1 (stereo partly drawn),13.4%
20,C#Cc1ccc([C@@H]2C=C(C(=O)NC3CC3)O[C@H](OCC)[C@H]2CCCO)cc1,1.55%
21,COc1ccc(NC(=O)c2ccc(C)cc2)c[n+]1[O-],11.8%
